Measurements reported in PubChem BioAssay AID504832 (National Center for Advancing Translational Sciences (NCATS), 2011).
Several values for one entry are separate records, joined by “and”; a condition that tells them apart may be missing. Equal entries are not always repeated. Out of some 310,000 compounds screened, about 18,000 (5.8%) were called active. Inconclusive means that the source gave no clear call. Such entries were picked first, then a sample of the others. Calls follow the shape of the dose curve; as a rule, active = well fitted inhibition curve with a large enough effect; inconclusive = small, poorly fitted or top-dose-only effect, or another doubt; inactive = no such curve, though single readings can be large or run the other way. Potencies of inconclusive entries are left out as doubtful fits.

assay: Primary qHTS for delayed death inhibitors of the malarial parasite plastid, 48 hour incubation; conditions: P. falciparum luciferase growth in erythrocytes; series mostly up to 28.7 µM
Procedure, shortened: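 Compounds are pin-transferred into medium, infected erythrocytes (2% hematocrit, 0.1% parasitemia final) are added, and plates sit one parasite generation at 37 C in 5% CO2. Detection reagent is then added and luminescence measured.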
Potency is read from the fitted curve at half-maximal effect; tags tell the direction and shape of the fitted curve.

SMILES | Potency
O=C(NC(Nc1nc2ccc([N+](=O)[O-])cc2s1)(C(F)(F)F)C(F)(F)F)c1cccnc1 | active: 7.38 µM
CCCc1nc2sc(C(=O)OCC)c(N)c2c2c1COC(C)(C)C2 | inactive
C/C(=N\NC(=S)Nc1ccc(F)cc1)C1CC1 | inconclusive [inhibitor, partial curve, poor fit]
C=C(C)C1Cc2c(C)nn(-c3nc(C)cc(C)n3)c2C1 (stereo not given) | inconclusive [inhibitor, partial curve, poor fit]
CCOC(=O)CCCNC(=O)CCCNC(=O)C(c1ccccc1)c1ccccc1 | inconclusive [inhibitor, single point]
Cc1ccc(O)c(NC(=O)c2ccco2)c1 | inactive
Cc1ccc(C(=O)NC2CCCCCCC2)cc1S(=O)(=O)N1CCOCC1 | inconclusive [inhibitor, single point]
COc1ccccc1CNC(=O)C1CCN(c2ncnc3c2nc2n3CCCCC2)CC1 | inactive
CCOc1ccc2cc(C#N)c(SCC(=O)N3CCC(C)CC3)nc2c1 | active: 9.28 µM
Cc1cccc(C(=O)NC2CCN(CC(=O)NCc3cccs3)CC2)c1 | inconclusive [inhibitor, single point]
Cc1ccc(-c2nc3ccccc3n3c(C)nnc23)cc1 | inactive
COc1ccc2cc(C(=O)O)n(CC(=O)c3ccccc3)c2c1 | inactive
C/C(=N\NC(=O)c1cc(C(C)C)[nH]n1)c1ccco1 | inactive
COc1ccc(S(=O)(=O)N(CC(=O)NC2CCCCC2)c2ccc(F)cc2)cc1 | inactive
COc1ccc(CNC(=S)NCc2ccc(F)cc2)cc1OC | inconclusive [inhibitor, partial curve, poor fit]
CCOc1cc2[nH]c(=S)n(CCCC(=O)N3CCC4(CC3)OCCO4)c(=O)c2cc1OCC | inconclusive [inhibitor, partial curve]
CCCCn1c2c(c(=O)n(C)c1=O)C(c1ccc(OC)cc1)N1CCCCCC1=N2 (stereo not given) | inconclusive [inhibitor, partial curve, poor fit]
CCOC(=O)C1(Cc2cccc(Cl)c2)CCCN(C(=O)c2cn[nH]c2)C1 (stereo not given) | inconclusive [inhibitor, single point]
O=C(COc1ccc([N+](=O)[O-])cc1)Nc1cc(S(=O)(=O)N2CCCCC2)ccc1N1CCCCC1 | inconclusive [inhibitor, partial curve]
Cc1cc(C)n(-c2nnc(NC(C)(C)C)nn2)n1 | inactive
CC(/C=C1\NC(=S)NC1=O)=C\c1ccccc1 | inactive
Cc1cc(Cl)ccc1OCC(O)CNCCc1ccc(S(N)(=O)=O)cc1 (stereo not given) | inconclusive [inhibitor, single point]
Cc1ccc(N(CC(=O)N/N=C/c2cc(C)n(-c3ccccc3)c2C)S(C)(=O)=O)c(C)c1 | inconclusive [inhibitor, single point]
O=C(N/C(=C\c1ccc(Br)cc1)C(=O)N1CCCC1)c1cccs1 | inconclusive [inhibitor, single point]

SMILES | Potency
O=c1c2ccccc2oc2ccc(NCCCN3CCOCC3)cc12 | inactive
CN(C(=O)c1ccccc1C(=O)OCC(=O)Nc1cccc(Br)c1)c1ccccc1 | inconclusive [inhibitor, single point]
CCc1ccc2c(c1)C1(NN=C(c3ccccc3)S1)C(=O)N2 (stereo not given) | active: 3.7 µM
CCCCCCCCCCCCCCCC[N+](C)(C)CC | active: 1.69 µM and active: 3.29 µM
Cc1ccccc1OCC(=O)Nc1ccc(N2CCOCC2)cc1N1CCOCC1 | active: 9.28 µM
O=C(OC1CCOC1=O)c1ccc(Cl)c(S(=O)(=O)N2CCOCC2)c1 (stereo not given) | inactive
Cc1cc(OCC(=O)NC2CCS(=O)(=O)C2)c2c3c(c(=O)oc2c1)CCC3 (stereo not given) | inconclusive [inhibitor, partial curve, poor fit]
CCCCOc1ccc(Cl)cc1CSc1nnc(C)n1N | inconclusive [inhibitor, single point]
O=C(COc1ccc(Cl)c(Cl)c1)NC1CCS(=O)(=O)C1 (stereo not given) | inconclusive [inhibitor, single point]
CN(CC(=O)NC(=O)NCc1ccco1)Cc1nc2ccccc2c(=O)[nH]1 | inactive
Cc1ccc(S(=O)(=O)c2nnn3c2nc(N2CCN(c4ccccn4)CC2)c2ccccc23)cc1 | active: 1.47 µM
CCOC(=O)OC(C)OC(=O)[C@@H]1N2C(=O)[C@@H](NC(=O)[C@H](N)c3ccccc3)[C@H]2SC1(C)C (stereo not given in full) | inactive
O=C(NCCCN1CCOCC1)c1cc(Cl)ccc1OCc1ccccc1 | inconclusive [inhibitor, partial curve, poor fit]
COc1cccc(OC)c1C(=O)OCC(=O)N1CC(C)CC(C)C1 (stereo not given) | inactive
COC(=O)c1ccc(C(C(=O)NC2CCCCC2)N(Cc2ccc(F)cc2)C(=O)Cc2cccs2)cc1 (stereo not given) | active: 11.7 µM
Cc1cc(/C=N/NC(=O)c2nn(C)cc2Cl)c(C)n1-c1cccc(Br)c1 | inconclusive [inhibitor, partial curve, poor fit]
CCOc1ccc(C(C)=O)cc1COc1ccc(C)nc1[N+](=O)[O-] | inactive
O=C(CNc1ccccc1F)Nc1cccc(S(=O)(=O)N2CCCCC2)c1 | inconclusive [inhibitor, single point]
O=[N+]([O-])c1cccc(/C(=N/N=C/c2ccccc2Br)C23CN4CN(CN(C4)C2)C3)c1 | inconclusive [inhibitor, partial curve, poor fit]
O=C(NC(=S)N1CCN(Cc2ccc3c(c2)OCO3)CC1)c1cccc(Br)c1 | inconclusive [inhibitor, single point]
CC(C)c1ccc(-c2nn(-c3ccccc3)cc2C2C(C#N)=C(N)OC3=C2C(=O)CC(C)(C)C3)cc1 (stereo not given) | inconclusive [inhibitor, partial curve, poor fit]
CCOc1ccccc1C(=O)Nc1cc(C(=O)NCC(C)C)ccc1Cl | active: 7.38 µM
COc1ccc(Cc2nnc(SCC(=O)Nc3ccc(N4CCOCC4)cc3)n2C)cc1 | inconclusive [inhibitor, partial curve]
Cc1cccc(N2CC(C(=O)Nc3nnc(SCc4cccnc4)s3)CC2=O)c1 (stereo not given) | inconclusive [inhibitor, single point]

SMILES | Potency
Nc1c(C(=O)Nc2ccccc2)c2nc3ccccc3nc2n1-c1ccc(O)cc1 | active: 13.1 µM
Cc1nnc(SCC(=O)NC2CC2)n1CC1CCCO1 (stereo not given) | inactive
COc1c2ccoc2nc2c(OC)c(OCC(O)C(C)(C)O)ccc12 (stereo not given) | inconclusive [inhibitor, partial curve, poor fit]
CS(=O)(=O)N(CCc1ccccc1)CC(=O)N1CCN(Cc2ccc3c(c2)OCO3)CC1 | inconclusive [inhibitor, single point]
C=CCNC(=S)N1CCN(CCN=CC2=C(O)CC(c3ccc(Cl)cc3)CC2=O)CC1 (stereo not given) | inconclusive [inhibitor, single point]
C=CCOC(=O)C1=C(C)OC(N)=C(C#N)[C@@]12C(=O)N(CC(N)=O)c1ccccc12 | inconclusive [inhibitor, single point]
Cc1ccc(N2C(=O)CC(Sc3nc(-c4ccccc4)c4cc(Cl)ccc4n3)C2=O)c(C)c1 (stereo not given) | inactive
CC(=O)c1cccc(Nc2ncnc3ccc(Br)cc23)c1 | active: 5.86 µM
Cc1ccccc1NC(=S)Nc1ccccn1 | inconclusive [inhibitor, single point]
CN1C2CCC1CC(OC(=O)c1ccc(Cl)cc1)C2 (stereo not given) | inconclusive [inhibitor, partial curve, poor fit]
COc1ccccc1NC(=O)CN1CCN(CC(=O)Nc2ccc3c(c2)OCO3)CC1 | inconclusive [inhibitor, single point]
CC1=CC(=NOC(=O)c2cccc([N+](=O)[O-])c2)C=C(C)C1=O | inconclusive [inhibitor, single point]
CCC1(c2ccc(F)cc2)NC(=O)N(CC(=O)c2cc(C)n(C3CC3)c2C)C1=O (stereo not given) | active: 14.7 µM
Cc1nc2ncccn2c1-c1csc(Nc2ccc(S(N)(=O)=O)cc2)n1 | inconclusive [inhibitor, partial curve, poor fit]
CCOC(=O)C1(CCCc2ccccc2)CCN(C(=O)CCn2cncn2)CC1 | inactive
Cn1cnnc1SC1c2cccc3cccc(c23)C1NS(=O)(=O)c1ccc(Cl)cc1 (stereo not given) | inconclusive [inhibitor, partial curve]
CC(C)n1nc(C(=O)Nc2cccc(S(=O)(=O)N3CCCCC3)c2)c2ccccc2c1=O | inconclusive [inhibitor, partial curve]
CCN(CC)S(=O)(=O)c1cc(NC(=O)c2cc([N+](=O)[O-])ccc2N2CCOCC2)ccc1C | inconclusive [inhibitor, partial curve, poor fit]
CCN1C(=O)N(CC)c2cccc3cccc1c23 | inactive
CC1=C(CC(=O)c2ccccc2)C(=O)c2ccccc2C1=O | active: 0.738 µM
CC(CCN1C(Nc2ccccc2)=NC[C@@H]1C)c1ccccc1 (stereo not given in full) | inactive
CCOC(=O)c1ccc(NC(=O)CN2CCc3ccccc3C2)cc1 | inconclusive [inhibitor, single point]
